The record followed here is PubChem BioAssay AID488969 (Vanderbilt High Throughput Screening Facility, 2010).

Whole data set: some 110,000 compounds, median “z-score” near -0.1, cut for the highest 2% near 2. Some of the results follow. Residues, ends and D or L forms follow the SMILES beside them. *: point of attachment. Boc = CC(C)(C)OC(=O)*; OBn = c1ccc(CO*)cc1

The test concerns the target Metabotropic glutamate receptor 8 (Rattus norvegicus) (UniProt P70579). The test is described as follows: rat mGluR8 modulators via GIRK flux, primary screen, cell-based, thallium flux, HTS (AID 488969). Particulars: HEK293 rat mGluR8, GIRK (G protein-gated inwardly rectifying potassium channel) thallium flux, FluoZin2; at 10 µM; stronger effect = higher value; submaximal glutamate (EC20) added with thallium.
Chain of UniProt P70579 (P70579 whole entry, looked up): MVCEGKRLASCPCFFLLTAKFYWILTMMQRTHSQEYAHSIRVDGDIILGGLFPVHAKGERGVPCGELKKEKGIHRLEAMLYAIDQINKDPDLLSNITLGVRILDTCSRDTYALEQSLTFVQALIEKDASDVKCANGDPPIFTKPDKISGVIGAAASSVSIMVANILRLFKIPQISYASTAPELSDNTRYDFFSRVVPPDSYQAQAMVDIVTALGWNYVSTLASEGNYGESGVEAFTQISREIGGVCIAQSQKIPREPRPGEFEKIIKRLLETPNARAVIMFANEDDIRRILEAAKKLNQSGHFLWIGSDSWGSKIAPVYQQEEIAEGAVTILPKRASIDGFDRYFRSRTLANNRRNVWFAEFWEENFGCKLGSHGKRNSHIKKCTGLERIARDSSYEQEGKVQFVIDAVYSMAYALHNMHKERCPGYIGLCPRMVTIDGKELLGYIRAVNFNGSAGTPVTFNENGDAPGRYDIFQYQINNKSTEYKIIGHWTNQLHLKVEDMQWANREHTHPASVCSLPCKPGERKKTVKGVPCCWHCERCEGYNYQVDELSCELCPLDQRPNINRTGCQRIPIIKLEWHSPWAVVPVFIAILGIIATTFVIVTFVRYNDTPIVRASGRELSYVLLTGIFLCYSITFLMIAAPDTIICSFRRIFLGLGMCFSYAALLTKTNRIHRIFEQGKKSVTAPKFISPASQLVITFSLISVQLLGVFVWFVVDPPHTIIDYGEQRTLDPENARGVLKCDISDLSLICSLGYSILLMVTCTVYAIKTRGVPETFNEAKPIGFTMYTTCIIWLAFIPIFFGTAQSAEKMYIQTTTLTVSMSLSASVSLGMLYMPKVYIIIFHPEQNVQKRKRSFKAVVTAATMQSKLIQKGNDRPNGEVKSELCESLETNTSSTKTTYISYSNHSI
`N#Cc1c(N)nc2c(c1N)CC(COc1ccccc1)O2` (stereo unspecified) yielded a z-score of -0.78.
The value for `COc1ccc(NC(=O)CSc2nnc(-c3ccccc3)n2Cc2ccco2)cc1OC` was -0.794.
The value for `O=C1CC(c2cccs2)CC2=C1C(c1ccccc1)n1ncnc1N2` (stereo unspecified) was -0.606; that for `Cc1ncoc1C(=O)NCc1ccccc1Cl` was -0.12.
The value for `O=C1OC(C(=O)O)Cc2ccccc21` (stereo unspecified) was 0.465; that for `Cc1cc2ncc(C(=O)Nc3ccccc3)c(C)n2n1` was 1.7; that for `CCC1CCCCN1Cc1cc(OC)c(O)c([N+](=O)[O-])c1` (stereo unspecified) was 0.579.
In turn, `Cc1ccc(NC(=O)c2cc3c(s2)CCC3)cc1S(=O)(=O)N1CCOCC1` came in with a z-score of 0.275.
The value for `Nc1nc(Cl)cc(Sc2ccc(F)cc2)n1` was -0.168; that for `Cc1ccc(Nc2cc(C)nc(N3CCOCC3)n2)c(C)c1` was -0.396; that for `COC(=O)c1ccccc1NC(=O)Cn1nc2n(C)c3ccccc3n2c(=O)c1=O` was -0.846.
The value for `O=C(COC(=O)c1ccc(O)cc1)Nc1ccc(N2CCCCC2)cc1` was 0.457; that for `Cc1ccc(/C=N/NC(=O)CSc2nnc(-c3ccccc3)n2-c2ccc(Cl)cc2)o1` was -0.309.
Regarding `Cc1nc([N+](=O)[O-])c(Sc2nc3ccccc3n2C)n1Cc1ccccc1`, the z-score was -0.352.
To `CCOC(=O)C(=O)Nc1ccc([N+](=O)[O-])cc1OC` belongs -0.295; to `O=C(NC1CCCCC1)C(c1ccc(F)cc1)N(Cc1ccco1)C(=O)CN1C(=O)c2ccccc2S1(=O)=O` (stereo unspecified), -0.0257; to `COc1ccc(-c2cc(C3CCN(c4ccc(C(C)=O)cc4[N+](=O)[O-])CC3)[nH]n2)cc1`, 0.0382.
To `O=C(N1CCOCC1)N1CCN(S(=O)(=O)c2ccccc2)C1` belongs 0.354.
For the compound `CNC(=S)N/N=C(\C)c1ccc(C)c(C)c1`, the z-score was found to be 1.2.
The value for `CCSC(=O)NC12CC3CC(CC(C3)C1)C2` was -0.316.
The value for `CCc1cc(=O)oc2cc3occ(-c4ccc(OC)c(F)c4)c3cc12` was 0.111; that for `CCOc1cc(N2CCOCC2)c(OCC)cc1NC(=O)COC(=O)c1cccc2ccccc12` was -0.0215; that for `CSC1=C(C#N)C(c2ccc(C(C)C)cc2)CC(=O)N1` (stereo unspecified) was -0.0762.
Regarding `Cc1nc(CC(=O)O)c(-c2ccccc2)s1`, the z-score was -0.143.
The value for `O=C(Oc1ccccc1-c1nnco1)c1ccc(Cl)cc1` was -0.599; that for `C=C(C)c1cccc(C(C)(C)NC(=O)N2CCCCC2CC)c1` (stereo unspecified) was -0.061.
The value for `O=C(CNC(=O)c1ccco1)OCC(=O)c1ccc2ccccc2c1` was -0.102; that for `COc1ccc(CN2CCN(S(=O)(=O)c3ccc(F)cc3)CC2)c(OC)c1OC` was -0.157; that for `CCOC(=O)N1CCC(NC(=O)c2cc(C(=O)Nc3ccc(F)cc3F)ccc2CO)CC1` was 0.353.
The value for `CS(=O)(=O)N1CCN(c2ccccc2NC(=O)c2ccc(-c3ccc(Br)cc3)o2)CC1` was -0.158.
In the case of `O=C(COC(=O)CCSc1ccc(Cl)cc1)Nc1ccc(F)cc1`, the z-score is -0.137.
`O=C(CC1S/C(=N/N=C/c2cccs2)NC1=O)Nc1ccc(Cl)c(Cl)c1` (stereo unspecified): the z-score stood at 0.218.
Take `CCOC(=O)C1CN(S(=O)(=O)c2ccc(OC)cc2)c2cc(CC(=O)OC)ccc2O1` (stereo unspecified): the z-score was -0.284.
The value for `CCCC(=O)C1=C(O)C(C(=O)OC)C(C)(C)CC1=Nc1ccc(N)cc1` (stereo unspecified) was -0.0627; that for `Cc1ccc(C(=O)C2=C(O)C(=O)N(CCN(C)C)C2c2ccccn2)o1` (stereo unspecified) was -0.614.
To `COc1cc(Cl)c(S(=O)(=O)n2cnc(C)c2)cc1Cl` belongs -0.158; to `CCCCCc1c(O)nc(SCC(=O)NCC2CCCO2)[nH]c1=O` (stereo unspecified), -0.24; to `Cc1cccc(NS(=O)(=O)c2cc(C(=O)NCCC3=CCCCC3)ccc2Cl)c1`, 0.335.
`COc1ccc2oc(C(=O)C3CC3)c(N)c2c1` displayed a z-score of 1.19.
To `COc1cccc(N/C=C/C(=O)c2ccc(Br)cc2)c1` belongs -0.103; to `Cc1cc(C)nc(SCc2cc(=O)c(OC(=O)c3cccc([N+](=O)[O-])c3)co2)n1`, -1.2; to `CCOc1c2ccc(C(=O)N[C@H](C)C3CCCCC3)cc2nn1CCOC`, -0.0882.
To `COCCNC(=O)COc1ccc(Nc2ccccc2)cc1` belongs -0.348; to `Cc1cccc2c(=O)cc(C)n(Cc3ccccc3)c12`, -0.148; to `Cc1nc2c(C)cccc2cc1C(=O)N/N=C/c1ccc(N(C)C)cc1`, -0.9.
The value for `CCCCCC(=O)Nc1nc(C)c(-c2csc(Nc3cc(Cl)ccc3C)n2)s1` was -0.0486; that for `COc1ccc(-c2nnc(-c3ccc(Br)o3)o2)cc1OC` was -0.165.
`COc1ccc(Br)cc1/C=N/NC(=O)C(c1ccncc1)N1CCOCC1` (stereo unspecified) yielded a z-score of 0.378.
In turn, `O=C(NCCOc1ccccc1)c1cc2ccccc2o1` had a z-score of -0.0733.
The value for `COc1ccccc1NC(=O)Cc1cccs1` was -0.045; that for `COc1ccccc1OCc1ccc(C(=O)N(C)C)o1` was -0.882; that for `CCC(=O)N1CCN=C1SCc1ccc(F)cc1` was -0.439.
To `CCOC(=O)c1nn(-c2ccccc2)c2nc(-c3ccc(OC)cc3)c(C#N)c(=O)n12` belongs -0.335.
The value for `Cc1ccc(C(C(=O)NC2CCCCC2)N2CCN(C(=O)c3ccco3)CC2)cc1` (stereo unspecified) was -0.139; that for `CCCCCC(=O)N/N=C/c1ccc([N+](=O)[O-])o1` was 0.0192; that for `Cc1ccc(C)c(NC(=S)NCc2ccc3c(c2)OCO3)c1` was -1.94.
`Nc1ccc(C(=O)n2c3ccccc3c3ccccc32)cc1` came in with a z-score of -0.888.
The value for `CCn1c(Cc2c(C)[nH]c3ccccc23)n[nH]c1=S` was 0.266; that for `CCC(C)n1c(-c2cc(OC)c(OC)c(OC)c2)nc2nc3ccccc3nc21` (stereo unspecified) was -1.11; that for `CCOC(=O)c1cc(OC(=O)c2ccccc2Br)n(-c2ccccc2)n1` was -0.0255.
To `COC(=O)c1ccc(C(C(=O)NC2CCCCC2)N(Cc2ccccc2)C(=O)Cc2cccs2)cc1` (stereo unspecified) belongs -0.276.
The value for `COc1ccc(NC(=O)c2ccco2)cc1NC(=O)c1ccc(Br)o1` was -0.82; that for `CCOC(=O)c1cn2nc(-c3ccc(OCC)cc3)cc2nc1C1CCN(C(=O)OC(C)(C)C)CC1` was -0.13.
Consider `Cc1nc(SCC(=O)NCCc2ccccc2)nc(C)c1C`, for which the z-score was 1.02.
With `COc1cccc(N2CC(O)=C(c3ccccc3)C2=N)c1`, the z-score turned out to be 0.0785.
`Cc1cc(NC(=O)C2C3C(=O)N(Cc4ccc(Cl)cc4)C(C(=O)NC(C)(C)C)C34C=CC2(C)O4)no1` (stereo unspecified) had a z-score of 0.0313.
With `CCCc1cc(=O)[nH]c(SCC(=O)c2cc(C)n(C3CC3)c2C)n1`, the z-score is -0.914.
The value for `COC(=O)c1sc2nc(N3CCCCC3)c3c(c2c1N)CCCC3` was -1.19; that for `CS(=O)(=O)N(CC(=O)Nc1ccc(CC#N)cc1)c1ccc(C23CC4CC(CC(C4)C2)C3)cc1` was -0.0739.
To `COc1ccccc1OCCSc1nnnn1C1CCCCC1` belongs -0.203; to `CNc1nc(C)c(C(C)=O)cc1C#N`, 0.0147.
`CCN1CCN(Cc2c(O)ccc3c(=O)c(-c4ccc(OC)c(OC)c4)c(C)oc23)CC1` came in with a z-score of -0.348.
The value for `O=C(CCCNS(=O)(=O)c1cccc2nsnc12)NCc1ccc(Cl)cc1` was -5.78e-05; that for `CCc1ccc(S(=O)(=O)/N=C2/C=C(Sc3ncn[nH]3)C(=O)c3ccccc32)cc1` was 0.072; that for `CCCCCCC(=O)Nc1nc(C)c(-c2csc(Nc3ccccc3OC)n2)s1` was 0.116.
Consider `Cc1c(Cl)cccc1N1C(=O)C(N2C(=O)c3cccc([N+](=O)[O-])c3C2=O)C1c1cccs1` (stereo unspecified), for which the z-score stood at 0.18.
To `COc1ccc(C2=NN3C(=O)c4c(ccc(OC)c4OC)C3C2)cc1` (stereo unspecified) belongs -0.542.
Consider `Cc1ccc(NC(=O)CCSc2nnc(-c3ccco3)o2)cc1`, for which the z-score was -2.1.
To `Cc1ccc2oc(=O)c3cnn(CC(=O)NCCc4ccsc4)c3c2c1` belongs -1.41; to `CC(C)(C)OC(=O)NCC(=O)NCC(=O)OCc1ccccc1` (Boc-Gly-Gly-OBn), -0.223; to `Cc1ccccc1NC(=O)CSCc1nc(N)nc(Nc2ccccc2C)n1`, -0.0832.
The value for `O=C(CN1CCN(Cc2ccc3c(c2)OCO3)CC1)N1CCc2[nH]c3ccc(F)cc3c2C1` was 1.15.
In turn, `N#CCCNC(=O)Cn1c(COc2ccc(Cl)cc2)nc2ccccc21` returned a z-score of -0.257.
On to `COc1ccc(N2CC(NC(=O)NCC(C)C)CC2=O)cc1` (stereo unspecified), for which the z-score was -0.399.
To `CCCc1cc(=O)[nH]c(Nc2ccc(OC)c(Cl)c2)n1` belongs -0.227; to `c1ccc(C[n+]2cccc(-c3ccccc3)c2)cc1`, -0.371; to `COc1nc(N)c(S(=O)(=O)c2ccccc2C)cc1C#N`, -0.197.
The value for `CCN(CC)c1ccc(C=Nc2ccc(C)cc2)c(O)c1` was -0.0617; that for `COc1ccc(/C=C/C(=O)NCCc2ccc(S(N)(=O)=O)cc2)cc1` was -0.28; that for `COc1ccc(S(=O)(=O)Nc2cc3c(C(C)=O)c(C)oc3c3ccccc23)cc1` was -0.384.
On to `O=C(NC1CCCc2ccccc21)c1ccc(=O)[nH]c1` (stereo unspecified), for which the z-score stood at 0.896.
To `Cc1cccc(CN2CCN(C(=O)CCl)CC2)c1` belongs -0.0016; to `CC(C)N(CC#CCC(O)(c1ccccc1)c1ccccc1)C(C)C`, 0.092; to `COc1ccc(NC(=O)C2C3CCC(C3)C2C(=O)O)cc1OC` (stereo unspecified), -0.453.
The value for `Cc1cccc(-c2cc3nc(C)cc(NCCCn4ccnc4)n3n2)c1` was -0.0482; that for `CCOC(=O)c1c(C)nc(C)c(C(=O)OCC)c1-c1ccc(Br)cc1` was -0.445; that for `COc1ccc(-c2c(C)oc3ccc(C)cc23)cc1` was -0.0455.
The value for `Cc1ccc(CC(=O)N2CCN(c3ccccn3)CC2)cc1` was 0.0296; that for `Nc1nc(CN2CCc3ccccc3C2)nc(Nc2ccccc2)n1` was -0.327.
Consider `Cc1cc(C(=O)NCCN2CCCCC2C)n(-c2ccccc2)n1` (stereo unspecified), for which the z-score is -0.438.
On to `CC1C(=NO)C(C)C(c2ccccc2)NC1c1ccccc1` (stereo unspecified), for which the z-score is -0.0154.
In turn, `COc1ccc(-c2nc3ccccc3n2Cc2ccc(C)cc2)cc1` showed a z-score of -0.405.
The value for `CCOC(=O)N/N=C/c1ccc(C)o1` was -0.228; that for `Cn1c(=O)[nH]c(=O)c2c1nc1n2CCN1Cc1ccccc1` was -0.0704; that for `CCOc1cc(C2c3c(oc4cc(C)c(Cl)cc4c3=O)C(=O)N2Cc2ccco2)ccc1O` (stereo unspecified) was -0.525.
As to `CCCCCn1c(N)c(-c2nc3ccccc3o2)c2c([N+](=O)[O-])nn(C)c(=O)c21`, the z-score worked out at 0.0272.
As for `c1ccc(-c2noc(-c3ccco3)n2)nc1`, the z-score was -0.129.
With `CCOC(=O)c1c(C)c(C(=O)NCc2ccco2)c(C)n1Cc1ccccc1`, the z-score is -0.988.
The value for `Cc1cc(-n2nc(C)cc2C)nc(NS(=O)(=O)c2ccccc2Cl)n1` was 1.39; that for `Cc1ccc(C)c(NC(=O)CSc2nnc(-c3ccccc3)o2)c1` was -0.153.
For the compound `O=C1NC(Cc2c[nH]c3ccccc23)C(=O)N1CCOc1ccccc1` (stereo unspecified), the z-score was -0.0736.
